Some of the results follow. The list includes weakly bound sequences.

32 sequences from article PMC12820563 can be followed below.

For this assay, the target named is T1, MBP-FoxP3dN (UniProt Q99JB6).
T1 sequence: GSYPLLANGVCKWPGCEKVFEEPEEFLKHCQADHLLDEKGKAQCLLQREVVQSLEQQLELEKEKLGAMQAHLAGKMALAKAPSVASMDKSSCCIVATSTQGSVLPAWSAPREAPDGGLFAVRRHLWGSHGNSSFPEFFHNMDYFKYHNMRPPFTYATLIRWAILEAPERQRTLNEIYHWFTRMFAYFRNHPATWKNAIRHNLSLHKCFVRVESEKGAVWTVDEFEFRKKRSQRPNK
The assay is described as follows: PD-seq (MBP pull-down with sequencing). The following applies: 20 mM Tris-HCl pH 7.5, 100 mM NaCl, 1.5 mM MgCl2, 0.4 uM protein, 0.1 uM dsDNA library, 30 min, room temperature, amylose pull-down; high values mean tight binding; double strand, one strand shown.
In the case of “GATGATTGTTCTCCCAGCTGATGAATTGGCGCTGTCGAGTAAACAAATTTTCCTAATCTTTCTGTTCAAGCGCCATCTAC”, the binding signal (RPM ratio (pull-down/input)) stood at 0.476.

As to “GATGATTGTTCTCCCAGCTGATGAATTCTCTGACTCGAGTAAACAAATTTTCCTAATCTTTCTGTTCAAGCGCCATCTAC”, the binding signal (RPM ratio (pull-down/input)) was found to be 0.188.

Regarding “GATGATTGTTCTCCCAGCTGATGAATTGCGGGCTTCGAGTAAACAAATTTTCCTAATCTTTCTGTTCAAGCGCCATCTAC”, the binding signal (RPM ratio (pull-down/input)) is 0.686.

For the sequence “GATGATTGTTCTCCCAGCTGATGAATTTTAGCACTCGAGTAAACAAATTTTCCTAATCTTTCTGTTCAAGCGCCATCTAC”, the binding signal (RPM ratio (pull-down/input)) came out at 0.537.

In the case of “GATGATTGTTCTCCCAGCTGATGAATTATTTCGATCGAGTAAACAAATTTTCCTAATCTTTCTGTTCAAGCGCCATCTAC”, the binding signal (RPM ratio (pull-down/input)) is 0.363.

Take “GATGATTGTTCTCCCAGCTGATGAATTCCATTGCTCGAGTAAACAAATTTTCCTAATCTTTCTGTTCAAGCGCCATCTAC”: the binding signal (RPM ratio (pull-down/input)) is 0.618.

As to “GATGATTGTTCTCCCAGCTGATGAATTCAATTGATCGAGTAAACAAATTTTCCTAATCTTTCTGTTCAAGCGCCATCTAC”, the binding signal (RPM ratio (pull-down/input)) was found to be 1.07.

Take “GATGATTGTTCTCCCAGCTGATGAATTGTTTCCCTCGAGTAAACAAATTTTCCTAATCTTTCTGTTCAAGCGCCATCTAC”: the binding signal (RPM ratio (pull-down/input)) is 1.51.

With “GATGATTGTTCTCCCAGCTGATGAATTGGTACATTCGAGTAAACAAATTTTCCTAATCTTTCTGTTCAAGCGCCATCTAC”, the binding signal (RPM ratio (pull-down/input)) worked out at 0.679.

As to “GATGATTGTTCTCCCAGCTGATGAATTAAATCGTTCGAGTAAACAAATTTTCCTAATCTTTCTGTTCAAGCGCCATCTAC”, the binding signal (RPM ratio (pull-down/input)) turned out to be 0.372.

In the case of “GATGATTGTTCTCCCAGCTGATGAATTCCATGGTTCGAGTAAACAAATTTTCCTAATCTTTCTGTTCAAGCGCCATCTAC”, the binding signal (RPM ratio (pull-down/input)) was found to be 0.513.

“GATGATTGTTCTCCCAGCTGATGAATTTACTGCATCGAGTAAACAAATTTTCCTAATCTTTCTGTTCAAGCGCCATCTAC”: the binding signal (RPM ratio (pull-down/input)) is 1.26.

Consider “GATGATTGTTCTCCCAGCTGATGAATTCTACTGGTCGAGTAAACAAATTTTCCTAATCTTTCTGTTCAAGCGCCATCTAC”, for which the binding signal (RPM ratio (pull-down/input)) turned out to be 0.328.

For “GATGATTGTTCTCCCAGCTGATGAATTCCAATAGTCGAGTAAACAAATTTTCCTAATCTTTCTGTTCAAGCGCCATCTAC”, the binding signal (RPM ratio (pull-down/input)) worked out at 0.404.

Consider “GATGATTGTTCTCCCAGCTGATGAATTATGTCCTTCGAGTAAACAAATTTTCCTAATCTTTCTGTTCAAGCGCCATCTAC”, for which the binding signal (RPM ratio (pull-down/input)) amounted to 1.41.

Consider “GATGATTGTTCTCCCAGCTGATGAATTAGTACCGTCGAGTAAACAAATTTTCCTAATCTTTCTGTTCAAGCGCCATCTAC”, for which the binding signal (RPM ratio (pull-down/input)) was found to be 0.654.

“GATGATTGTTCTCCCAGCTGATGAATTAACATAATCGAGTAAACAAATTTTCCTAATCTTTCTGTTCAAGCGCCATCTAC”: the binding signal (RPM ratio (pull-down/input)) turned out to be 0.409.

On to “GATGATTGTTCTCCCAGCTGATGAATTTGTACGTTCGAGTAAACAAATTTTCCTAATCTTTCTGTTCAAGCGCCATCTAC”, for which the binding signal (RPM ratio (pull-down/input)) was 2.29.

For the sequence “GATGATTGTTCTCCCAGCTGATGAATTACTGGCATCGAGTAAACAAATTTTCCTAATCTTTCTGTTCAAGCGCCATCTAC”, the binding signal (RPM ratio (pull-down/input)) amounted to 0.776.

In the case of “GATGATTGTTCTCCCAGCTGATGAATTTCTCCCCTCGAGTAAACAAATTTTCCTAATCTTTCTGTTCAAGCGCCATCTAC”, the binding signal (RPM ratio (pull-down/input)) was 0.246.

As to “GATGATTGTTCTCCCAGCTGATGAATTTGGACTCTCGAGTAAACAAATTTTCCTAATCTTTCTGTTCAAGCGCCATCTAC”, the binding signal (RPM ratio (pull-down/input)) is 1.69.

With “GATGATTGTTCTCCCAGCTGATGAATTCTCTACCTCGAGTAAACAAATTTTCCTAATCTTTCTGTTCAAGCGCCATCTAC”, the binding signal (RPM ratio (pull-down/input)) turned out to be 0.185.

For “GATGATTGTTCTCCCAGCTGATGAATTAAGGGGGTCGAGTAAACAAATTTTCCTAATCTTTCTGTTCAAGCGCCATCTAC”, the binding signal (RPM ratio (pull-down/input)) was 0.459.

Turning to “GATGATTGTTCTCCCAGCTGATGAATTAGGGTAATCGAGTAAACAAATTTTCCTAATCTTTCTGTTCAAGCGCCATCTAC”, the binding signal (RPM ratio (pull-down/input)) came to 0.536.

With “GATGATTGTTCTCCCAGCTGATGAATTTAGTTTGTCGAGTAAACAAATTTTCCTAATCTTTCTGTTCAAGCGCCATCTAC”, the binding signal (RPM ratio (pull-down/input)) was 5.36.

With “GATGATTGTTCTCCCAGCTGATGAATTGATATTATCGAGTAAACAAATTTTCCTAATCTTTCTGTTCAAGCGCCATCTAC”, the binding signal (RPM ratio (pull-down/input)) is 1.09.

As for “GATGATTGTTCTCCCAGCTGATGAATTTAATGAGTCGAGTAAACAAATTTTCCTAATCTTTCTGTTCAAGCGCCATCTAC”, the binding signal (RPM ratio (pull-down/input)) was determined as 0.567.

As to “GATGATTGTTCTCCCAGCTGATGAATTAGCCCCGTCGAGTAAACAAATTTTCCTAATCTTTCTGTTCAAGCGCCATCTAC”, the binding signal (RPM ratio (pull-down/input)) was 0.22.

Regarding “GATGATTGTTCTCCCAGCTGATGAATTTTACCCATCGAGTAAACAAATTTTCCTAATCTTTCTGTTCAAGCGCCATCTAC”, the binding signal (RPM ratio (pull-down/input)) is 0.29.

Regarding “GATGATTGTTCTCCCAGCTGATGAATTCCGGGATTCGAGTAAACAAATTTTCCTAATCTTTCTGTTCAAGCGCCATCTAC”, the binding signal (RPM ratio (pull-down/input)) stood at 0.303.

“GATGATTGTTCTCCCAGCTGATGAATTCACTACTTCGAGTAAACAAATTTTCCTAATCTTTCTGTTCAAGCGCCATCTAC”: the binding signal (RPM ratio (pull-down/input)) is 0.368.

For the sequence “GATGATTGTTCTCCCAGCTGATGAATTTGTCCTTTCGAGTAAACAAATTTTCCTAATCTTTCTGTTCAAGCGCCATCTAC”, the binding signal (RPM ratio (pull-down/input)) came to 2.94.
